The whole screen tested about 310,000 compounds, of which about 2,200 (0.71%) showed an effect of 50% or more. The effect is printed as a negative number. This is one part of the list.
Each molecule was assayed against human ether-à-go-go-related gene (hERG) potassium channel (human, UniProt Q12809) (assay: primary screen, population patch clamp on CHO cells stably expressing hERG).
human ether-à-go-go-related gene (hERG) potassium channel, sequence (Q12809 whole entry, looked up): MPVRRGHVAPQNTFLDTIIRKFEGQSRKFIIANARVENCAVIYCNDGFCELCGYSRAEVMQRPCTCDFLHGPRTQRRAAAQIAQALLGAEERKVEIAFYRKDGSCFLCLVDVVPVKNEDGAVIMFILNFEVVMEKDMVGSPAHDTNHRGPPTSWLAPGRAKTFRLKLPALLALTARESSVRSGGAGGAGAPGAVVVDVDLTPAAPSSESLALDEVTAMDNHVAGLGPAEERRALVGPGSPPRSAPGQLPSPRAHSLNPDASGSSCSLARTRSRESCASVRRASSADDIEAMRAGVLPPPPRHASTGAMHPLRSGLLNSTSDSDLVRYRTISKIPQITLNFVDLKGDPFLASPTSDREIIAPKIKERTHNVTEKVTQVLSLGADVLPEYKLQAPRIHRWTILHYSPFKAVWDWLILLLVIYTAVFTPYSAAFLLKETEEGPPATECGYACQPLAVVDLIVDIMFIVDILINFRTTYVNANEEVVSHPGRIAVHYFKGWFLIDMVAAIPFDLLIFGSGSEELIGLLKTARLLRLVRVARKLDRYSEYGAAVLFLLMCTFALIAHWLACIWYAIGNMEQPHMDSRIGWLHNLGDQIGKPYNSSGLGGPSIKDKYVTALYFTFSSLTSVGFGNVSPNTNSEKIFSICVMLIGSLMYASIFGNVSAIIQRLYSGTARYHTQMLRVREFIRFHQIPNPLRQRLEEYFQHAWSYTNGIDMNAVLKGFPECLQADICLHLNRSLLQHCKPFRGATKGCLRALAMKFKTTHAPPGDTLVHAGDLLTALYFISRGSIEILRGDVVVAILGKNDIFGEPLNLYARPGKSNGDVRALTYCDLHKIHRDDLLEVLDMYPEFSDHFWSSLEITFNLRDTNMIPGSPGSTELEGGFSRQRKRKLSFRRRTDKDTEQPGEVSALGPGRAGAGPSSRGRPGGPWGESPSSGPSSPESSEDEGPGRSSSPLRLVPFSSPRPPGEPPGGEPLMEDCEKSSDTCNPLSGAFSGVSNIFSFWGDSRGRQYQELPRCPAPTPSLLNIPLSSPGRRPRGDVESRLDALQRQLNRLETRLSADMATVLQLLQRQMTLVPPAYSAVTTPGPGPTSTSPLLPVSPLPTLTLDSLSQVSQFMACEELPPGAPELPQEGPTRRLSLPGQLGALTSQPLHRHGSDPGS

In order of rising “hERG current change (%, negative = inhibition) at 1uM” value:
1. CCOC(=O)N1CCC(N2C(=O)c3ccccc3C2Nc2c(C)cccc2C)CC1 (stereo not shown)  -57.6%
2. COc1ccc(OCCCNCCc2ccccc2)cc1.O=C(O)C(=O)O  -20.9%
3. CC(=O)N1CCc2cc(S(=O)(=O)NC(CC(C)C)C(=O)N3CCn4c3nc3ccccc34)ccc21 (stereo not shown)  -16.3%
4. O=C(Nc1ccc2c(c1)OCO2)C1CCN(Cc2cnn(-c3ccccc3)c2-n2cccc2)CC1  -13.1%
5. O=C(Cc1ccccc1)Nc1ccc(C(=O)O)cc1  -8.03%
6. Cc1ccc(NC(=O)c2oc3ccccc3c2NC(=O)c2ccc3c(c2)OCO3)cc1  -7.6%
7. CC(C)(C)C(Cn1ccnc1)NC(=O)c1ccc2nc(C3CC3)oc2c1 (stereo not shown)  -7.48%
8. Clc1ccc(OCc2nc(-c3ccc(Br)o3)no2)cc1  -6.15%
9. CCc1ccc(S(=O)(=O)NCC2(N3CCOCC3)CCCCC2)cc1  -5.83%
10. CCCCN(CCCNC(=O)C1CCCN(S(=O)(=O)CC)C1)Cc1ccccc1 (stereo not shown)  -5.14%
11. O=C(C1CCC(=O)N1Cc1ccccc1Cl)N1CCC2(CC1)OCCO2 (stereo not shown)  -4.5%
12. Cc1c(C(=O)NCC2CCCO2)sc2nc(-c3ccc(F)cc3)cn12 (stereo not shown)  -4.15%
13. O=C(O)c1ccc(N/N=C2/CCCc3ccccc32)cc1.O=S(=O)(O)O  -1.94%
14. COCCN1CCN(Cc2nc(C3(c4ccc(C)cc4)CCCC3)no2)CC1  -0.947%
15. Cc1ccc(/C=C/C(=O)NC(=S)N2CCN(C)CC2)cc1  -0.681%
16. COc1ccc(-c2cc(C(=O)NCc3ccco3)no2)cc1OC  -0.258%
17. COc1ccc(C(=O)N2CCC(n3nccc3NC(=O)C3CC3)CC2)cc1F  0.5%
18. CC(C)C(=O)Nc1cccc(NC(=S)NC(=O)C(c2ccccc2)c2ccccc2)c1  2.01%
19. Clc1nc(NCCN2CCOCC2)nc(NCc2ccccc2)n1  2.26%
20. Cc1c(-c2nc(-c3cccnc3)no2)cccc1[N+](=O)[O-]  3.16%
21. CC(C)(C)c1cc(C(=O)N/N=C/c2ccncc2)n[nH]1  3.24%
22. O=C(Nc1ccc(F)cc1)C1CC(=O)n2c(nc3ccccc32)N1 (stereo not shown)  4.14%
23. Cn1cnnc1SCc1ccc(C(=O)N=Nc2c(O)n(Cc3ccc(Cl)cc3)c3ccccc23)cc1  4.26%
24. Cc1cc2ccccn2c1C(=O)c1cccc(F)c1  5.35%
25. CCCNC(=O)c1ccc(N2CCC3(CC2)CC(c2cccc(Br)c2)=NO3)c(NC(=O)c2ccc(Br)cc2)c1  5.67%
26. Cc1csc(NC(=O)CSc2nc3ccccc3c3c2CCCC3)n1  6.69%
27. CCC1=NN(C(=O)Cc2ccc([N+](=O)[O-])cc2)C(O)(c2ccncc2)C1 (stereo not shown)  6.82%
28. N/C(=N/OC(=O)c1ccccc1Cl)c1nonc1N  7.04%
29. O=C(/C=C/c1cn(CC(O)CN2CCCCC2)c2ccccc12)c1cccs1 (stereo not shown)  7.06%
30. Cc1cc(=O)n2c3c(sc2n1)C(=O)N(Cc1ccccc1)C3=O  7.16%
31. CC1(C(=O)[O-])CCCC2(C)c3cc(O)ccc3CCC12.[Ba+2] (stereo not shown)  7.38%
32. NC(=O)C1=CN(Cc2ccc(Cl)cc2)CCC1C(F)(F)F (stereo not shown)  7.51%
33. COc1ccc(/C=N/NC(=O)Cn2c(Cc3ccc(OC)c(OC)c3)nc3ccccc32)cc1  7.62%
34. Cc1cc(-c2[nH]nc3c2C(c2ccsc2)C(C#N)=C(N)O3)c(C)s1 (stereo not shown)  8.05%
35. COC(=O)C1=C(c2ccc(F)cc2F)C[C@@H]2CC[C@H]1N2C(=O)NC1CCCCC1  8.19%
36. COc1ccc(CC(=O)N[C@@H](CCSC)C(=O)N2CCC3(CC2)NCCc2[nH]cnc23)cc1  8.35%
37. COc1ccc(C(C)=O)cc1CSc1ccc(S(=O)(=O)N2CCCCC2)cn1  8.35%
38. CCOC(=O)N1CCN(C(=O)Nc2ccc3nc(-c4ccccn4)c(-c4ccccn4)nc3c2)CC1  8.51%
39. O=C(Cn1cnc2c(NC(=O)OCc3ccccc3)ncnc21)NCCN1CCOCC1  8.52%
40. CCC(C)c1ccccc1N1CC(C(=O)N(C)CC(=O)Nc2cccc(F)c2)CC1=O (stereo not shown)  8.69%
41. CC1CCCCC1NC(=O)CCS(=O)(=O)c1ccc2c(c1)NC(=O)CS2 (stereo not shown)  8.71%
42. Cc1ccccc1-c1nnc(SCC#N)o1  9.27%
43. COc1ccc(OC)c(CCNC(=O)CN2C(=O)COc3ccc(S(=O)(=O)N4CCOCC4)cc32)c1  9.3%
44. CCC(=O)Nc1cccc(C(=O)c2ccccc2)c1  9.33%
45. Cc1cc(NC(=O)c2ccccc2F)on1  9.42%
46. CSc1nc(-c2ccco2)cc(-c2ccccc2)c1C#N  9.54%
47. COCCNC(=O)C(NC(=O)C1CCCCC1)C(C)C (stereo not shown)  9.72%
48. NS(=O)(=O)c1cccc(NC(=O)C(Cc2ccccc2)NC(=O)c2ccccc2)c1 (stereo not shown)  10.1%
49. O=C(CSC1=NS(=O)(=O)c2cc(F)ccc2N1)Nc1ccccc1F  10.3%
50. COc1ccccc1OCC(=O)NNC(=O)C1CCN(c2ncnc3sc(C)c(C)c23)CC1  10.4%
51. COc1ccc(-c2nn(CCC#N)cc2C(=O)Nc2ccccc2Cl)cc1  10.5%
52. COc1cccc(-n2ccnc2SCC(=O)N2CCCc3ccccc32)c1  10.7%
53. Cc1ccc(COc2cccc3c2CCN(Cc2ccc(F)cc2)C3=O)cc1  10.9%
54. O=C(CN1c2ccccc2S(=O)(=O)c2ccccc21)Nc1ccccc1F  11.3%
55. COc1ccc(/C=C/C(=O)c2ccc(OC)cc2O)cc1  11.4%
56. CC(C)Sc1nc2ccccc2n1CC(N)=O  11.5%
57. CCC(Oc1ccccc1)C(=O)OCC(=O)Nc1sccc1C(N)=O (stereo not shown)  11.5%
58. CCN(CC(=O)Nc1ccc(NC(C)=O)cc1)C(=O)CCCc1nc2ccccc2c(=O)[nH]1  11.7%
59. Oc1c(Br)cc(Br)cc1C=NCc1ccc(F)cc1  11.8%
60. C=CCn1c(O)c(C(C)=NCC2CCCO2)c(=O)[nH]c1=O (stereo not shown)  11.9%
61. CC(=O)c1ccc(Sc2nnc(C)s2)c([N+](=O)[O-])c1  12%
62. CCOc1ccc(Cn2nnc(C(=O)NCc3ccc(OC)cc3)c2N)cc1  12.1%
63. O=C(Nc1ccc(S(=O)(=O)Nc2ncccn2)cc1)C1CC(=O)N(c2ccc(Cl)cc2)C1 (stereo not shown)  12.3%
64. COc1ccccc1C(=O)NNC(=O)C12CC3CC(CC(C3)C1)C2  12.4%
65. COc1ccccc1Nc1ncnc2ccc(C)cc12  12.7%
66. CN(C(=O)c1ccccc1Cl)c1ccccc1C(=O)NCCc1ccccc1  13.1%
67. CCC(C)n1c(SCc2ccc([N+](=O)[O-])cc2)nc2ccsc2c1=O (stereo not shown)  13.2%
68. Cc1ccc(S(=O)(=O)CCC(=O)OCC(=O)NC(N)=O)cc1  13.7%
69. C#CCOCCOCCOCCNc1nc(N2CCN(C(=O)[C@H](Cc3ccc(O)cc3)n3cc([C@@H](N)C(C)CC)nn3)CC2)nc(N2CCN(C(=O)[C@H](Cc3cc4ccccc4[nH]3)n3cc([C@@H](N)CC(C)C)nn3)CC2)n1.Cl (stereo partly shown)  13.8%
70. COc1ccc(-c2c[n+]3c(n2-c2c(C)n(C)n(-c4ccccc4)c2=O)CCCCC3)cc1.[Br-]  14.5%
71. Cc1ccnc(N2C(=O)c3ccccc3C2Nc2ccccc2Cl)c1 (stereo not shown)  14.9%
72. O=C(COC(=O)Cc1ccc(F)cc1)NCCc1ccccc1  15.1%
73. Cc1ccc(S(=O)(=O)NC(C)C(=O)NC(C)c2cccs2)cc1 (stereo not shown)  15.2%
74. Cc1ccccc1N1C(=O)C(Cl)=C(N2CCOCC2)C1=O  15.9%
75. COc1ccc(C2=NOC(C(=O)NCc3ccccn3)C2)cc1OC (stereo not shown)  16.1%
76. O=C1CCC/C1=c1\s/c(=C\c2cccnc2)c(=O)n1-c1ccccc1  16.4%
77. CN(CC(=O)OCC(N)=O)S(=O)(=O)c1ccc(Cl)cc1  16.4%
78. O=C(NC(c1ccccc1)c1ccccc1)C1(c2cccs2)CCOCC1  16.5%
79. COc1cccc(OC)c1C(=O)OCCCOC(=O)c1c(OC)cccc1OC  16.5%
80. Br.COc1ccccc1C1=Nn2c(COc3ccccc3)nnc2SC1  16.6%
81. Cc1ccccc1NC(=S)c1ccc2ccccc2n1  18.2%
82. CCn1c(=O)c2c(n3c(=S)[nH]nc13)-c1ccccc1CC21CCCCC1  19.1%
83. COc1cc(C2NCCc3c2[nH]c2ccccc32)ccc1OC(C)C.Cl (stereo not shown)  19.1%
84. Cn1nccc1C(=O)N1CCc2c([nH]c3ccccc23)C1c1ccc(F)cc1 (stereo not shown)  20.7%
85. COCCNC(=O)C1CCCN(S(=O)(=O)c2cccc3nsnc23)C1 (stereo not shown)  23.6%

— publication PMC4336329 (PLoS ONE, 2015)
